The list shows a part of the results.

We go through 14 molecules from PMC12136788.

The labels stand for the following.
B1: chr13:39012690:39014476:-|CDS|ENSG00000120685|control|control|control (ssRNA)
RNA: GGGAGUUCUACAGUCCGACGAUCCCAGGGUCAUUAAUAGCCACCUCAUCUACCGCUGCCACCUCCACAUCUCUCCCUCAUCCUAGCUCAACGGCAGCUGUUCUCUCAGGGCUUUCUGCUUCAGCACCAGUCUCAGCAGCACCUCAACAGAGGAUUGAGCAUCA
B2: chr7:123541454:123541562:-|3pUTR|ENSG00000128609|unk|FALSE|unique (ssRNA)
RNA: GGGAGUUCUACAGUCCGACGAUCUCCAUAGUGUCAUUUUAUUUUAGUCAUUAUUGAAUUAUACCAUUUACUCUGUUUUCUUAUAGUCUUAAUUUUAUUAUAUUUUGUUGUUACUGUAUUAUAUUUGAAAACCUUCAAAUUAGACAACAGAGGAUUGAGCAUCA
B3: chr16:3022182:3022332:+|3pUTR|ENSG00000006327|msi1|FALSE|unique (ssRNA)
RNA: GGGAGUUCUACAGUCCGACGAUCCCACGGGGGUCACCCUGGGGGGUUAGGGACCUAUUUUUAACACUAGGGGGCUGGCCCACUAGGAGGGCUGGCCCUAAGAUACAGACCCCCCCAACUCCCCAAAGCGGGGAGGAGAUAUUUCAACAGAGGAUUGAGCAUCA
B4: chr1:235448940:235449205:-|3pUTR|ENSG00000162885|unk|total|mutant (ssRNA)
RNA: GGGAGUUCUACAGUCCGACGAUCAACCGAGAAUUCCAUUAAAACCCGUCUUAUGACAGAUAUUAACUGUGUUCAGAUUUUAUCCGGCCCGCCCGUUUCUUUCUAUUUAAUAUUUAAAUCUUAUCAUGAAAUGCAGUGAUGAGCCAACAGAGGAUUGAGCAUCA
B5: chr10:43183422:43183523:+|CDS|ENSG00000169826|msi1|total|mutant (ssRNA)
RNA: GGGAGUUCUACAGUCCGACGAUCUAAAGCCAUGAAUGAGGCCUCUCACUCCCACCUGGGAAUGCUGGUCUUCAGGGAGGAAACCGAGACGCAUCUUCAUAAACAGGCAUACAGGACAAACAGUGAAGCUGUUGGUUGAAAUCACAACAGAGGAUUGAGCAUCA
B6: chr2:70277881:70277982:+|3pUTR|ENSG00000116005|msi1|total|mutant (ssRNA)
RNA: GGGAGUUCUACAGUCCGACGAUCACCUGAGGGAGAACUUAAAGACAUCUCCGUUGGGGAGCCGUCCUUUUGAAUUUUACAGCCCGAUAUAAUCUUCAGUCAGAUAAAAUUUAUGGGAGCUGGUGUCUUAUGCCUGACUCUCCGCAACAGAGGAUUGAGCAUCA
B7: chr11:9429001:9429102:+|CDS|ENSG00000205339|msi1_unk|total|mutant (ssRNA)
RNA: GGGAGUUCUACAGUCCGACGAUCGGUACUUCACUAUUUUUGUGAAGUGAAGUUCAAAAGUGAUCAGAACCUUCAAACAGCCUCCGAGCUAACAAGAAGAUGUCUGAUUGAUGACCGAGAAAUGCCUGUGAAAGUGGAAGCUGCCAACAGAGGAUUGAGCAUCA
B8: ENSG00000109805:stop:overlap|stop_codon|ENSG00000109805|stop_codon|NA|stop_codon (ssRNA)
RNA: GGGAGUUCUACAGUCCGACGAUCCCGCAGCACUAGAAAAAAGUAAACUUAACCUUGCCCAAUUUCUCAAUGAAGAUCUAAGUUAGGAAAGACGAUGGAGGUGGAAUCCUUUAAGAUUAUGUCCAGUUAUUUGCUUUAAUAAAGCAACAGAGGAUUGAGCAUCA
B9: chrX:40073105:40073212:-|CDS|ENSG00000183337|unk|total|mutant (ssRNA)
RNA: GGGAGUUCUACAGUCCGACGAUCCUACCAAGAUGCCCUGGGGUUGGGCAUGGUGCAUCCCAUGUUGAUACCACACACGCCCACCGAGAUUACUAAAGAGGAGAAACCAGAGAGGAGAUCCCGGUCCCAUGAGAGAGCCCGUUACAACAGAGGAUUGAGCAUCA
B10: chr12:54395726:54395827:-|3pUTR|ENSG00000161638|msi1_unk|FALSE|overlapping (ssRNA)
RNA: GGGAGUUCUACAGUCCGACGAUCAAGAACACUAACUAUGCAUGGUGCCCCAGGACCAGCUCAGGACAGAUGCCACACAAGGAUAGAUGCUGGCCCAGGGCCCAGAGCCCAGCUCCAAGGGGAAUCAGAACUCAAAUGGGGCCACAACAGAGGAUUGAGCAUCA
B11: chr11:49981574:49982501:-|CDS|ENSG00000221954|control|control|control (ssRNA)
RNA: GGGAGUUCUACAGUCCGACGAUCGAACAAUAGCUUGGAGGGGAGGUGUAAAGCCCUCUCCACCUGUAUUUCUCACAUCAUAGUAGUUGUCUUAUUCUUUGUGCCCUGUAUAUUUGUGUAUCUGCGCUCAGUGACCACUCUGCCCAACAGAGGAUUGAGCAUCA
B12: chr19:4409044:4409156:+|CDS|ENSG00000167670|unk|total|mutant (ssRNA)
RNA: GGGAGUUCUACAGUCCGACGAUCCUGUCAUGUGGGUUCUGACACCGACUUCCGACCGAAACUUGUCAACGGGAAGGGUCCCUCCGAUAACUUUUUAAGAAACCGAAUCGAAACCAGUAUUGGCCAGAGCACAGUCAUCAUUGACAACAGAGGAUUGAGCAUCA
B13: chr3:120395571:120395798:-|3pUTR|ENSG00000163430|msi1|FALSE|unique (ssRNA)
RNA: GGGAGUUCUACAGUCCGACGAUCUGGUUCUGAUCAUUGGUCCAGAGGGGAGAUAGGUUCCUGUGAUUUUUCCUUCUUCUCUAUAGAAUAAAUGAAAUCUUGUUACUAGAACAAGAAAUGUCAGAUGGCCAAAAACAAGAUGACCAACAGAGGAUUGAGCAUCA
B14: chr13:32776882:32776983:+|3pUTR|ENSG00000083642|unk|FALSE|unique (ssRNA)
RNA: GGGAGUUCUACAGUCCGACGAUCAAAGUGUUUUGAAUUGUGUCUUAAUCUCUCCAUAUUCAACUAUUCUUCAUUUACAACAAUAGUGACACCAGUAAUUAUGAGAGGCUGUCAUAUAUCAAAGCAGCUCAGGUGGGAUCAACACAACAGAGGAUUGAGCAUCA

The assay deals with MSI1 full-length (mouse, UniProt Q61474 1-362). Briefly: nsRBNS (natural sequence RNA bind-n-seq); RBNS binding buffer (assumed for nsRBNS): 25 mM Tris pH 7.5, 150 mM KCl, 3 mM MgCl2, 0.01% Triton X-100, 500 ug/ml BSA, 20 U/ml SUPERase-In, 4 C; UNK is unkempt and MSI1 is Musashi-1; names of the RNAs are library labels; protein concentration not given here; high values mean tight binding.
Sequence of UniProt Q61474 (Q61474 whole entry): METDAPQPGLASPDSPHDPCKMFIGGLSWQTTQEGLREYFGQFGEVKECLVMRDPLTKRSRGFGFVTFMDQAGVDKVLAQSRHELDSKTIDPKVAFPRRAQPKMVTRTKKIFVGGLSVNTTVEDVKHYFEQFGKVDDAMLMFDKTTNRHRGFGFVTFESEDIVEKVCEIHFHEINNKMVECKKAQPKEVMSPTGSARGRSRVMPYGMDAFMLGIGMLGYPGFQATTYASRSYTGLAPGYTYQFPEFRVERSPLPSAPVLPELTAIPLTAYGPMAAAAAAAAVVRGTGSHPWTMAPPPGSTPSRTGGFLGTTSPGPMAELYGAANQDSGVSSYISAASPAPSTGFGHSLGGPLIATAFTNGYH
B1 had a binding signal of 1.16 enrichment R.

The molecule B2 registered a binding signal of 42.9 enrichment R.

For the molecule B3, the binding signal amounted to 2.35 enrichment R.

In turn, B4 returned a binding signal of 1.57 enrichment R.

B5 showed a binding signal of 0.376 enrichment R.

Turning to B6, the binding signal was 0.34 enrichment R.

With B7, the binding signal turned out to be 0.242 enrichment R.

The molecule B8 had a binding signal of 6.83 enrichment R.

Consider B9, for which the binding signal came out at 0.534 enrichment R.

The molecule B10 displayed a binding signal of 0.464 enrichment R.

The molecule B11 displayed a binding signal of 2.83 enrichment R.

For B12, the binding signal was 0.36 enrichment R.

In the case of B13, the binding signal was 3.98 enrichment R.

B14 yielded a binding signal of 0.475 enrichment R.
